In the RNAGym collection of RNA variant scans (doi:10.1073/pnas.2313332121):
Variants at the floor of the assay are shown more often than the library holds them.

B1: TPR 5TU (parent)
chain: GGAUCUUCUCGAUCUAACAAAAAAGACAAAUCUGCCACAAAGCUUGAGAGCAUCUUCGGAUGCAGAGGCGGCAGCCUUCGGUGGCGCGAUAGCGCCAACGUUCUCAACUAUGACACGCAAAACGCGUGCUCCGUUGAAUGGAGUUUAUCAUG

Variants of: B1
Assay: polymerase ribozyme fitness, log enrichment relative to wild type (log ratio); higher = more active; in vitro selection for triplet polymerase activity
Summary of the method: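 After PCR construction and transcription, each subunit's mutant library from a heterodimeric triplet polymerase ribozyme was annealed with a biotinylated primer, the partner subunit and triplets. Incubation was frozen, at −7 °C, and extended constructs were gel-excised, bound to streptavidin beads and amplified by RT-PCR, in one selection round done in triplicate. Fitness is the logarithm of a genotype's enrichment divided by that of the wild type, from inverse-variance-weighted replicate averages of Illumina-sequenced inputs and outputs. The base of the logarithm is 2, and genotypes needed ≥10 input reads and ≥1 read per output.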

Variant | polymerase ribozyme fitness (log ratio)
A41C G59A G86U | -2.6
A40U U55G G92C A107G U134G | ≤ -4.2
A40G G50U U56A G83C | -4.02
A40U G48C C69G C85U | -1.48
A40G G65C | ≤ -4.2
A40C G71A C85A A142C A150C | ≤ -4.2
A40U A47C A89U U134G | -2.3
A40C G58C U77A G88U | ≤ -4.2
A40U U45C U55A A106G A120U C125U U144C | ≤ -4.2
A40U A49U U78G | ≤ -4.2
A41C C96U A107U C131A G133A U146C | ≤ -4.2
A40C G59A A91U G92C G141U A142G A150C | ≤ -4.2
A40C C87A G128U | ≤ -4.2
A40G A52C C87A | ≤ -4.2
A40U C43G C51A U55A G81A G92C A113U U144C | ≤ -4.2
A41C G50U G74A C75G U77G C79A G88U C93U | ≤ -4.2
A41C G67U C129G A137G A142C | ≤ -4.2
A41C C87U | -1.35
A40U C125G G128A | ≤ -4.2
A40G U56A G83U A89C A97C G140A G143C | ≤ -4.2
A41C A47C G88U A97U | -4.03

Variant | polymerase ribozyme fitness (log ratio)
A40G G83A C103G | ≤ -4.2
A40U C87U C105U G136U | -2.13
A40G A64U U134G A142C | ≤ -4.2
A41C G80A C87A | ≤ -4.2
A40G G92A C105U | ≤ -4.2
A41C G67A G81U G94C A107C | ≤ -4.2
A40C G42U G67U C85G G124A U151G | ≤ -4.2
A41C G59U C93U C95G U109C G126U | ≤ -4.2
A40U G67C C75A A138G G152A | ≤ -4.2
A40U U56A C75G | -3.97
A40C C87U U109C C118A G133C | ≤ -4.2
A40U U61A C76U C103G G128C | ≤ -4.2
A40G G50U G58C A73G G88A | ≤ -4.2
A41C A52C U55A U61A U82G C116U G140U | ≤ -4.2
A41C G62A C87G G88U C103A C105U | ≤ -4.2
A41C G83U | -0.922
A40G A41U A64C C69A A73G G84C | ≤ -4.2
A41C A49G U82A A91G | ≤ -4.2
A40C G71U C93U G124A A138G U145A C149A | ≤ -4.2
A40G U55A G58A U90A U146A | ≤ -4.2
A40C G46C G59A G74C A110U A122C | ≤ -4.2

Variant | polymerase ribozyme fitness (log ratio)
A40U G81C C87G | ≤ -4.2
A40U C54U A97U C99U | -2.64
A41C A47C G71U C96A G141A | ≤ -4.2
A41C C43A A60G | ≤ -4.2
A40C G84A A97U | -2.32
A40C G83A C87G | ≤ -4.2
A40U U45A G62U C79U G81C C132A U139G | ≤ -4.2
A41C A49U A91U U139G | ≤ -4.2
A41C C108A | ≤ -4.2
A41C G50A G86A A98G | -3.62
A40C C85U C95U A98G G126U | -1.37
A40U G65A C87G A91U C95U G133A U148G | ≤ -4.2
A41C A98U G100A | ≤ -4.2
A40G C54U C76U A91C C95G G143U | ≤ -4.2
A40C C87G U146C C149G | ≤ -4.2
A40G G92U C108G A142U | ≤ -4.2
A41C C87U C93A | ≤ -4.2
A41C A60G G92A A106U | -3.98
A40U A49C U61G C87A G100U U102G G124C | ≤ -4.2
A40U C85A U144A | -0.577
A40C C96G C105U U109C U135A | ≤ -4.2

Variant | polymerase ribozyme fitness (log ratio)
A40U G92A A120C | -2.75
A40U G74U C85U C93A A107U G124U U135G | ≤ -4.2
A40G G48C A49C | ≤ -4.2
A40C C99U | 0.519
A40G A73U A89G C93G U104G A106G U134A | ≤ -4.2
A40G C79U C87U G100C C125A U127A | ≤ -4.2
A40G C108G | ≤ -4.2
A40C U45C U90G G92A C114G | ≤ -4.2
A40G C57G G62A | ≤ -4.2
A40G G65A A91C G100A A107U C108G U146C | ≤ -4.2
A41C C57G G67U G92C G141A | ≤ -4.2
A40U A73U U82A A91U C105G A107G A120U G124C A138C | ≤ -4.2
A40U U82A C95G | -1.43
A40C G50A C69A C95A | ≤ -4.2
A40U C54U C85U C108U | ≤ -4.2
A40G U56A G59U G68A C95A U135A A150U | ≤ -4.2
A40C U56A G59A C87A A89C G112U A119U G143A | ≤ -4.2
A40G A52U U53A G71A G83U A106U | ≤ -4.2
A40U U56A C75G C96A C103A A115C | ≤ -4.2
A41C A52U A66C U102G U134A | ≤ -4.2
